Results from PubChem BioAssay AID1645882 (National Center for Advancing Translational Sciences (NCATS), 2021).
Among all 16,000 compounds or so, about 120 (0.75%) were called active. Not shown: some 4% with an inconclusive outcome. Calls come from the whole dose curve; as a rule, active = well fitted inhibition curve with a large enough effect; inconclusive = small, poorly fitted or top-dose-only effect; inactive = no such curve, though single readings can be large or run the other way. Some of the results follow.

Target: Rap guanine nucleotide exchange factor 3 (Homo sapiens) (UniProt O95398)
Chain of UniProt O95398 (O95398 whole entry, looked up): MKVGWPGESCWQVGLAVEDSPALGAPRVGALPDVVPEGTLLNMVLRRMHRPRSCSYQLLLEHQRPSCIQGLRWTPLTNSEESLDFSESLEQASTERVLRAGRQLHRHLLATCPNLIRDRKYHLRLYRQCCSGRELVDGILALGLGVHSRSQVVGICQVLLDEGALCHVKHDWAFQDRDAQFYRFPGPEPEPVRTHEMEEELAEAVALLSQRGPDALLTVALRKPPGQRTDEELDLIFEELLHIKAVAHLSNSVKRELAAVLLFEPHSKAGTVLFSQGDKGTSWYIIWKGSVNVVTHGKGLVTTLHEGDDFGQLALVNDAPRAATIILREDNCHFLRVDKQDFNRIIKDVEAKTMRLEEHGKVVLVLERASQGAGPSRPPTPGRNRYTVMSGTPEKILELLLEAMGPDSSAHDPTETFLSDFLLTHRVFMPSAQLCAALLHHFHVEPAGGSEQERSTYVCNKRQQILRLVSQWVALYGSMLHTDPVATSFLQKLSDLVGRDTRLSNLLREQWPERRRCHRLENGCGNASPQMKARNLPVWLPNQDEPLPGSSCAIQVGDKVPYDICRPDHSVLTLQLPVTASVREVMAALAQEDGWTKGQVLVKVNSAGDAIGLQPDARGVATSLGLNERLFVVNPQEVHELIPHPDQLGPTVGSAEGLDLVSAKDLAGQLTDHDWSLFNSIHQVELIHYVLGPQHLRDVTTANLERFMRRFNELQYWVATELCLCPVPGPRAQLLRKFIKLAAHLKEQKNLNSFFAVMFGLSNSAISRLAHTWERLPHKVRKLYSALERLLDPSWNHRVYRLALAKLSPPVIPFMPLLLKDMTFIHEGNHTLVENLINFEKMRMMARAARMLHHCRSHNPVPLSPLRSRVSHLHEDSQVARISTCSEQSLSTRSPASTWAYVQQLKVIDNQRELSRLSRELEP
Assay: Validation qHTS for antagonist of cAMP-regulated guanine nucleotide exchange factor 3 (EPAC1);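 note: plate controls were DMSO for no effect and ATA control for full effect; nearly all actives have a fitted effect of over 75% in size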
Conditions: EPAC1 Rap1B-BODIPY-GDP exchange, fluorescence; series mostly up to 150 µM; activity change, negative = inhibition: at the top concentration
In short: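 EPAC1 (100 nM) mixed with 250 nM RAP1B-BODIPY-GDP and 50 uM GDP; compounds in concentration series, 5 min at room temperature. Fluorescence (ex 480/em 540 nm) read every 5 min for 30 min; normalized to ATA control and DMSO.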

Activity change, negative = inhibition, inactive:
O=C(NCCc1ccccn1)C1CC12CCN(C(=O)c1c(F)cccc1Cl)CC2 (stereo not drawn) -2.14%
CC(=O)C[C@H]1c2cc(C(F)(F)F)ccc2S(=O)(=O)N1c1ccc(N(C)C)cc1 11.1%
COCCn1c(=O)c(-c2cccc(C#N)c2)nc2cnc(Nc3ccccc3)nc21 35.3%
N#Cc1cccc(-c2cncnc2NCc2cccs2)c1 7.48%
CC1(C)C[C@@H]2C(=O)CCC3O[C@@]3(C)CCC21 (stereo partly drawn) 4.53%
COC(=O)c1cn([C@@H]2C[C@@H](C(=O)Nc3cccc(SC)c3)N(C3CCCCCC3)C2)nn1 -17.6%
COc1cc(-c2noc(C)c2/C=C/c2cccc([N+](=O)[O-])c2)cc(OC)c1OC 3.61%
COC(=O)C[C@H]1c2cc(C(F)(F)F)ccc2S(=O)(=O)N1Cc1ccccc1OC -10.5%
NOCC(=O)O 8.14% [at 75.8 µM]
O=c1c(-c2ccccc2)nc2cnc(N3CCNCC3)nc2n1Cc1cccs1 10.5%
O=C(c1ccoc1)N1CCOc2ccc(CN3CCC(Oc4cccnc4)CC3)cc2C1 21.1%
COc1cccc(CN2CCOc3ccc(CN4C[C@@H](C)O[C@@H](C)C4)cc3C2)c1OC 9.34%
CCC1(C2CCN(C(=O)c3ccc(C)cc3C)CC2)NC(=O)N(CCc2scnc2C)C1=O (stereo not drawn) 6.46%
OCC(O)C(O)C(O)C(O)C(O)CO (stereo not drawn) 21%
CCn1c(-c2cccnc2)nc2cc(NC(=O)COC)cc(C(=O)N3CCOc4ccccc4C3)c21 17.2%
N#CCCn1c(=O)c(-c2cccs2)nc2cnc(OCc3ccccc3)nc21 5.94%
O=C(NCC1(N2CCCCC2)CCCCC1)c1ccc(-n2cc(NC(=O)c3cccnc3)cn2)cc1 2.9%
CC(C)=CCC/C(C)=C/CC/C(C)=C/CC/C(C)=C/CC1=C(C)C(=O)c2ccccc2C1=O
CN1CCN(c2ncc3nc(-c4ccc(Cl)cc4)c(=O)n(C)c3n2)CC1 4.36%
Cc1ccccc1C1(CC(=O)N2CCCC2c2nccs2)CC(=O)N(C2CCCC2)C1=O (stereo not drawn) 3.91%
COc1cc(O)c(C)c(O)c1 18.8%
O=C(Nc1ccc(Cl)c(Cl)c1)C1CC1 10.5%
Cn1cccc1C(=O)N1CCC2(CCCN(C(=O)Nc3cccc(F)c3)C2)CC1 16.8%
C[C@H](C[C@H](N)C(=O)O)C(=O)O 11.4%
COC(=O)c1c(OCc2ccccn2)cc(=O)n2c1CCN(Cc1ccc3nsnc3c1)CC2 8.51%
COc1cc(-c2cc(C)c3cccc(OC)c3n2)cc2c1OCCN(C(=O)CCn1nc(C)cc1C)C2 -17.9%
CCC1CN(Cc2cn[nH]c2-c2ccc(F)cc2)Cc2cc(OC)ccc2O1 (stereo not drawn) -11.5%
COCCN(C)C(=O)c1cnn(-c2nccc(-c3cc(OC)ccc3OC)n2)c1C 10.7%
